Test results taken from PubChem BioAssay AID651820 (National Center for Advancing Translational Sciences (NCATS), 2012).
Screen size: about 340,000 compounds; about 12,000 (3.5%) were called active. The shares of active, inactive and inconclusive entries below differ from those in the screen. The call rests on the fitted dose curve; in most records, active means well fitted inhibition curve with a large enough effect; inconclusive means small, poorly fitted or top-dose-only effect, or another doubt; inactive means no such curve, though single readings can be large or run the other way. No potency is given beside an inconclusive call; the fits are too rough.

Assay: qHTS Assay for Inhibitors of Hepatitis C Virus (HCV)
Details: Huh7.5.1 HCVcc-Cre (HCVcc is cell-culture hepatitis C virus) infection, luciferase reporter, 44 h; activity change, negative = inhibition: at 41.8 µM (top of the series) unless noted
Procedure, shortened: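 Cells seeded at 1,000/well and cultured 4 h, then compounds added followed by HCVcc-Cre virus (~0.5 moi). After 44 h further culture, luciferase substrate was added, plates held 15 min at room temperature, and luminescence read for 15 sec.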
On the % scale 0 is the no-effect control and ±100 the full control effect; potency means the concentration at half of the fitted maximal effect; tags describe the fitted curve by direction and shape.

SMILES | Potency | activity change, negative = inhibition
COc1cccc(C2CC(c3cccs3)=NN2C(=S)Nc2ccccc2)c1OC (stereo not drawn) | inconclusive [inhibitor, partial curve] | 
O=C(NNC(=S)Nc1cccc(C(F)(F)F)c1)c1ccc(Cl)cc1Cl | inconclusive [inhibitor, partial curve, poor fit] | 
O=c1ccsc2ccccc12 |  | inactive: 21.8%
CC(=O)c1ccc2c3c(cc(C)c2c1)CCCC3 | active: 11.2 µM | 
COc1cc(CCCN2CCNC[C@H]2Cc2cccc3ccccc23)cc(OC)c1OC | inconclusive [inhibitor, single point] | 
O=S(=O)(NCC(Nc1ccc(Cl)cc1)c1ccccc1)c1ccc(Cl)cc1 (stereo not drawn) | inconclusive [inhibitor, single point] | 
CCC1(CC)NC(=O)N(CC(=O)OCC(=O)Nc2sccc2C#N)C1=O |  | inactive: 4.2%
COc1cccc(/C=C2\SC(=S)N(CCCC(=O)N3CCCC3)C2=O)c1 | inconclusive [inhibitor, single point] | 
COc1ccc(C2(O)CCN(CC(=O)Nc3nccs3)CC2)c(OC)c1 | inconclusive [inhibitor, partial curve] | 
O=C(Nc1ccc(NC(=O)c2ccc([N+](=O)[O-])cc2[N+](=O)[O-])cc1)c1ccco1 | inconclusive [inhibitor, single point] | 
CC(=O)Nc1cccc(-c2cc(C)c3cc4c(cc3n2)OCO4)c1 | inconclusive [inhibitor, single point] | 
O=C(Cc1ccc(NC(=O)C2CCCN(C(=O)C3CCC3)C2)cc1)Nc1cccc(C(=O)N2CCCCC2)c1 (stereo not drawn) | inconclusive [inhibitor, single point] | 
CN1CC(=O)N2C(c3ccc(Cl)cc3)c3[nH]c4ccccc4c3C[C@H]2C1=O (stereo partly drawn) |  | inactive: -5.68%
CCCC(=O)NC(=S)Nc1cccc(Cl)c1N1CCCCC1 | inconclusive [inhibitor, single point] | 
Clc1ccc(CNc2nc(CN3CCOCC3)nc3scc(-c4ccccc4)c23)cc1 | inconclusive [inhibitor, single point] | 
Cn1c(SC2=CS(=O)(=O)c3ccccc32)nc2ccccc21 | active: 6.31 µM | 
C=CCSc1nnc(C)c(/C=C/Nc2ccc(Cl)cc2)n1 | inconclusive [inhibitor, full curve, poor fit] | 
CCOc1ccccc1NC(=O)CN1CCc2ccccc2C1 | inconclusive [inhibitor, single point] | 
O=C1C=C(c2ccc3cc[nH]c3c2)C[C@@H](c2ccc3c(c2)OCO3)C1 | inconclusive [inhibitor, partial curve] | 
COc1ccc(NC(=O)c2cccn(CC=C(C)C)c2=O)cc1 | inconclusive [inhibitor, single point] | 
NC(=O)[C@@H]1CC2(CC(c3cccc(NC(=O)COc4ccc(Cl)cc4)c3)=NO2)CN1C(=O)c1ccccc1 (stereo partly drawn) | inconclusive [inhibitor, partial curve] | 
Cc1nc(-c2ccc(F)cc2)c(CC(=O)N(C)CC(=O)Nc2ccccc2Cl)s1 |  | inactive: 0.127%

SMILES | Potency | activity change, negative = inhibition
Cc1nn(CCC(N)=S)c2nc(-c3cccs3)cc(C(F)(F)F)c12 | inconclusive [inhibitor, partial curve] | 
COc1ccc(N(C)S(=O)(=O)c2cccc(C(=O)N3CCN(Cc4ccc5c(c4)OCO5)CC3)c2)cc1 | inconclusive [inhibitor, partial curve] | 
OCCCCCNc1ncnc2ccccc12 | inconclusive [inhibitor, partial curve] | 
O=C(NC(=S)Nc1ccc(N2CCOCC2)cc1)c1ccc2c(c1)OCCO2 | active: 7.94 µM | 
Fc1ccc(N2CCN(c3nc(-c4ccco4)cc(C(F)(F)F)n3)CC2)cc1 | inconclusive [inhibitor, single point] | 
COC(=O)COc1ccc(C(=O)OC)cc1 | inconclusive [inhibitor, single point] | 
CC1CCCCN1S(=O)(=O)c1ccc(C(=O)Nc2sccc2C(N)=O)cc1 (stereo not drawn) | inconclusive [inhibitor, single point] | 
CCCOc1ccc(C(=O)Nc2ccc(N3CCN(C(C)=O)CC3)cc2)cc1 | inconclusive [inhibitor, single point] | 
CCOc1ccc(NC(=O)CC2C(=O)N(c3ccc(OC)cc3)C(=O)N2Cc2ccc(OC)cc2)cc1 (stereo not drawn) | inconclusive [inhibitor, single point] | 
Cc1nnc(SCC(=O)Nc2ccc(O)cc2)c2ccccc12 |  | inactive: 3.57%
O=C(NCCc1ccccc1)c1cc(-c2ccco2)on1 | inconclusive [inhibitor, full curve, poor fit] | 
CN(C)S(=O)(=O)c1cccc(NC(=O)CSc2nc3c(cc2C#N)C(=O)CC(C)(C)C3)c1 | active: 5.01 µM | 
Cc1onc(-c2c(Cl)cccc2Cl)c1/C(N)=N/OC(=O)N(C)C |  | inactive: 19.9%
O=C(NCC(c1ccco1)N1CCOCC1)c1ccc(F)c(F)c1 (stereo not drawn) |  | inactive: 18.6%
O=c1[nH]c2ccccc2n1CCCSCCCn1c(=O)[nH]c2ccccc21 | inconclusive [inhibitor, partial curve] | 
CC(=O)c1cccc(Nc2ccc(-c3ccccc3F)nn2)c1 | inconclusive [inhibitor, single point] | 
CCOC(=O)C1=C(C)Nc2ccccc2N/C1=N\S(=O)(=O)c1ccc(Cl)cc1 |  | inactive: 7.82%
CCOC(=O)c1c(CN(C)C)n(C)c2c(O)c(N=NC(N)=O)c3ccc(Br)cc3c12 | inconclusive [inhibitor, single point] | 
COc1cccc(CN(C)C(=O)c2ccc3c(=O)n4c(nc3c2)CCC4)c1OC |  | inactive: 2.75%
CC(=O)NC(c1ccc2ccccc2c1)c1ccc2cccnc2c1O (stereo not drawn) | active: 2.51 µM | 
COC(=O)CCC[C@H]1CC2(C[C@H](CCCO[Si](C)(C)C(C)(C)C)N1C(=O)OC(C)(C)C)OCCO2 | inconclusive [inhibitor, single point] | 
